From PubChem BioAssay AID1347073 (National Center for Advancing Translational Sciences (NCATS), 2019)
In all, about 45,000 compounds went through this assay and about 200 (0.44%) were called active. About 7% were inconclusive and are not listed. Calls follow the shape of the dose curve; as a rule, active = well fitted activation curve with a large enough effect; inconclusive = small, poorly fitted or top-dose-only effect; inactive = no such curve, though single readings can be large or run the other way. This is one part of the list.

Experiment: qHTS of TDP-43 Inhibitors: NCGC Sytravon Library Screen; also: 0% is about no effect; nearly all actives have a fitted effect of over 55% in size
Conditions: yeast TDP-43 toxicity rescue, BacTiter-Glo growth, 24 h; series mostly up to 46.1 µM; growth rescue (activation): at the top concentration
How it was run: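 TDP-43-expressing yeast, pregrown in raffinose, seeded at OD600 0.02 in galactose medium with compound for 24 hr at 30 deg C. Growth read by BacTiter-Glo luminescence, so rescue of toxicity appears as activation.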

Row | SMILES | growth rescue (activation)
1 | C[C@]12CC[C@H](O)CC1=CCC1C2CC[C@@]2(C)C1CC[C@@H]2NC(=O)[C@@H](N)CO (stereo partly specified) | inactive: 1.59%
2 | COCc1c(C(=O)N(C)Cc2ccccc2N2CCCC2)oc2ccccc12 | inactive: 17.7%
3 | COc1cc(-c2cc(C(=O)Nc3cccc(S(=O)(=O)N(C)C)c3)c3ccccc3n2)cc(OC)c1OC | inactive: 7.25%
4 | O=C1C/C(=C\c2c(F)cccc2Cl)N2CCC1CC2 | inactive: -3.45%
5 | COc1ccc(Br)cc1-c1nc2c(c(=O)[nH]c(=O)n2Cc2ccccc2)n1C | inactive: 20.2%
6 | Cc1ccc(CN(C)c2ccc(S(=O)(=O)N3CCCC3)cn2)cc1 | inactive: 1.72%
7 | CCOC(=O)C1C(=O)NC(c2ccccc2)=NC1c1ccc(OC)cc1 (stereo unspecified) | inactive: -0.733%
8 | CCOC(=O)c1cc(CC)sc1N1C(=O)CC(Sc2ccccc2C(=O)O)C1=O (stereo unspecified) | inactive: -3.56%
9 | Cc1ccc(NC(=O)c2n[nH]c(=O)c3ccccc23)cc1S(=O)(=O)N1CCOCC1 | inactive: 13.7%
10 | COc1ccc(NC(=O)CSc2nnc(NC(=O)CN3CCOCC3)s2)cc1 | inactive: 3.58%
11 | Cc1ccc(OCC(=O)NNC(=O)C(=O)NC(C)(C)C)cc1 | inactive: -6.33%
12 | Cn1cc(C(=O)N/N=C/c2cccc(O)c2)ccc1=O | inactive: -5.26%
13 | Cc1cc2cc(CN(Cc3cccs3)C(=S)NCc3ccco3)c(=O)[nH]c2cc1C | inactive: -7.38%
14 | OC[C@@H]1CN(CCN2CCOCC2)C[C@H](n2cnc3c(NCc4ccc(F)cc4)ncnc32)O1 | inactive: -6.52%
15 | Cn1c(=O)cc(SCC(=O)N2CCCC2)c2ccccc21 | inactive: 23.7%
16 | O=C(COc1ccc(/C=N/NS(=O)(=O)c2ccccc2)cc1)NCc1ccccc1 | inactive: 17.2%
17 | CN1CCC(OC(=O)c2ccccc2Cl)CC1 | inactive: -6.93%
18 | Cc1ccc(N(C(=O)CNC(=O)c2ccco2)C(C(=O)NC2CCCCC2)c2ccncc2)c(C)c1 (stereo unspecified) | inactive: 9.28%
19 | Cc1ccc(C(=O)COC(=O)c2nc(Cl)ccc2Cl)cc1 | inactive: 40.6%
20 | O=C(O)c1cccc(S(=O)(=O)Nc2ccc(-c3ccccc3)cc2)c1 | inactive: 20.1%
21 | CSc1nsc(SC)c1C(=O)O | inactive: -6.56%
22 | COC(=O)c1ccc(NC(=O)c2ccc3nccnc3c2)cc1 | inactive: 1.62%
23 | Cc1cccnc1CCNC(=O)CCc1nnc(CCc2ccccc2)o1 | inactive: 11.2%
24 | CSc1ccc(C(=O)C2CCCN(C(=O)c3cc4cc(F)ccc4[nH]3)C2)cc1 (stereo unspecified) | inactive: -4.19%
25 | O=C(Nc1ccccc1Br)c1cc[n+]([O-])cc1 | inactive: 9.81%
26 | Cc1noc(C)c1COc1ccc(C(=O)N2CCN(S(=O)(=O)c3cccc(F)c3)CC2)cc1 | inactive: -4.22%

Row | SMILES | growth rescue (activation)
27 | CCNC(=O)NC(=O)CSc1nnc(-c2c[nH]c3ccccc23)o1 | inactive: -18.9%
28 | Nc1cc(-c2ccco2)no1 | inactive: 17.4%
29 | O=C(CN(Cc1ccco1)C(=O)c1ccc(Cl)cc1)Nc1ccc(Cl)c(Cl)c1 | inactive: 6.44%
30 | Cc1nc(CC(=O)NNS(=O)(=O)c2ccc3ccccc3c2)cs1 | inactive: 12.1%
31 | NS(=O)(=O)c1cc(C(=O)NNC(=O)c2ccc3c(c2)OCO3)ccc1Cl | inactive: 11.7%
32 | Cc1ccccc1COc1ccc(-c2nnn(CC(=O)O)n2)cc1 | inactive: 4.11%
33 | COc1ccc2nc(/N=C/c3cccc(OC)c3O)sc2c1 | inactive: -16.7%
34 | O=C(C[n+]1ccc(-c2cc(C(=O)Nc3cccc(C(F)(F)F)c3)c3ccccc3n2)cc1)c1cccc([N+](=O)[O-])c1 | inactive: 4.51%
35 | CCOc1ccc(NCc2cccn2-c2nnc(N3CCC(C(=O)NCC(C)c4ccccc4)CC3)s2)cc1 (stereo unspecified) | inactive: 7.87%
36 | COc1cc(C)ccc1OC(C)C(=O)Nc1ccc(N2CCCCC2)cc1 (stereo unspecified) | inactive: 26.1%
37 | O=C(CCC(=O)N1CCN(c2ccc(F)cc2)CC1)c1ccc(F)cc1 | inactive: 9.81%
38 | Cc1ccc(S(=O)(=O)NC(=O)C2(C)CCN2C(=O)Cc2ccc(-c3ccccc3)cc2)nc1 (stereo unspecified) | inactive: 3.53%
39 | CCOc1ccc(/C=C2\SC(=S)N(CCC(=O)Nc3ccccc3C(=O)O)C2=O)cc1 | inactive: 7.36%
40 | O=C(O)C1CCCN1C(=O)C1CCN(S(=O)(=O)c2cccc(C(F)(F)F)c2)CC1 (stereo unspecified) | inactive: 24.5%
41 | Cc1cc(OCCCCCn2ccnc2)cc(C)c1Cl | inactive: 10.5%
42 | COc1c(C)cc(C(O)c2ncc(-c3cccc(F)c3)[nH]2)cc1C (stereo unspecified) | inactive: 2.33%
43 | COc1ccccc1C(=O)C1CCCN(Cc2ccc3c(c2)OCCO3)C1 (stereo unspecified) | inactive: 29%
44 | CC(C)(C)NS(=O)(=O)c1ccc2nc(NC(=O)c3ccc(N4C(=O)CCC4=O)cc3)sc2c1 | inactive: 5.11%
45 | O=C(O)CC(Cc1ccc(Cl)cc1)C(=O)NCc1ccccc1 (stereo unspecified) | inactive: 9.25%
46 | CCn1c(SCC(=O)NC2CCCCC2)nnc1-c1cccnc1 | inactive: 11.4%
47 | O=[N+]([O-])c1ccc(-c2nnc3cccc(Cl)n23)cc1 | inactive: 7.44%
48 | COc1ccc(NS(=O)(=O)c2cc(NC(=O)c3ccc(Cl)cc3)ccc2N2CCOCC2)cc1 | inactive: 14.9%
49 | Cc1nc(N)sc1N=Nc1c(C)n(C)n(-c2ccccc2)c1=O | inactive: 7.43%
50 | COc1cccc(-c2nc(Oc3cccc(C)c3C)c3ccccc3n2)c1O | inactive: 11.3%
51 | Cn1nc(C(C)(C)C)cc1C(=O)N1CCCC(c2cc(C(=O)NCc3ccccc3)no2)C1 (stereo unspecified) | inactive: 8.12%
